# About 930 (0.24%) of roughly 390,000 compounds were called active. The shares of active, inactive and inconclusive entries below differ from those in the screen. Calls come from the whole dose curve; as a rule, active = well fitted activation curve with a large enough effect; inconclusive = small, poorly fitted or top-dose-only effect; inactive = no such curve, though single readings can be large or run the other way. Where the call is inconclusive, the potency comes from a doubtful curve fit.
# Experiment: qHTS for Suppressors of FUS Proteinopathy: Primary screen using FUS-linked yeast assay; note: nearly all actives have a fitted effect of over 55% in size;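 for growth rescue (activation): plate controls were DMSO vehicle for no effect and reference control for full effect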
# Conditions: S. cerevisiae FUS-expressing, OD600, 24 h; Potency: growth rescue; growth rescue (activation): at 76.6 µM (top of the series)
# Summary of the method: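 Steps: raffinose overnight preculture; dilution to OD 0.005 in 2% galactose minimal medium; compound addition (concentration series); 24hr at 30C, 99% humidity; absorbance read at 600 nm.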
# Potency is the fitted concentration of half-maximal effect; tags give direction and shape of the fitted curve.
SMILES,Potency,growth rescue (activation)
O=C(Cc1cccc(NC(=O)C2CCN(C(=O)CCc3ccccc3)CC2)c1)Nc1cccc(C(=O)N2CCOCC2)c1,inactive,
Cc1ccc(N=Cc2ccc[nH]2)c(O)c1,active: 35.5 µM,
COc1ccc(S(=O)(=O)NC(=O)C2(C)CCN2C(=O)Cc2ccc(-c3ccccc3)cc2)cc1 (stereo not drawn),"inconclusive: 44.7 µM [activator, single point]",
CCCCCCSc1ccc([C@H]2N[C@@](CC(C)C)(C(=O)OC)[C@H]3C(=O)N(C)C(=O)[C@@H]23)cc1OC,"inconclusive: 15.8 µM [activator, partial curve, poor fit]",
COc1ccc2sc(N(Cc3cccnc3)C(=O)C3CCCCC3)nc2c1,"inconclusive: 31.6 µM [activator, single point]",
CCOc1ccc2nc(N(Cc3ccccc3)C(=O)CCNC(C)=O)sc2c1,"inconclusive: 25.1 µM [activator, partial curve, poor fit]",
Cc1ccc(C)c(N2CCN(C(=O)c3cc4c(=O)n(Cc5ccccc5)ccc4nc3C)CC2)c1,"inconclusive: 17.8 µM [activator, partial curve, poor fit]",
COc1ccc(C(=O)C(OC(=O)c2ccc(C)c(NC(C)=O)c2)c2ccccc2)cc1 (stereo not drawn),"inconclusive: 44.7 µM [activator, single point]",
Cc1cccc(NS(=O)(=O)c2ccc3[nH]c4c(c3c2)CCCCCC4)c1,"inconclusive: 35.5 µM [activator, single point]",
Clc1ccc2nc(-c3ccncc3)cc(-c3ccccc3)c2c1,inactive,
COc1ccc(NC(=O)c2c(NC(=O)COc3ccccc3)sc3c2CCC(C(C)(C)C)C3)cc1 (stereo not drawn),inactive,
Cn1nc(C2CC2)cc1NC(=O)C1(C)CCN1C(=O)Cc1ccc(-c2ccccc2)cc1 (stereo not drawn),"inconclusive: 31.6 µM [activator, single point]",
Cc1ccc(S(=O)(=O)N2CCCc3cc(NS(=O)(=O)c4cc(C)ccc4C)ccc32)cc1,"inconclusive: 28.2 µM [activator, single point]",
COc1ccc2c(c1)C(=O)N1[C@H]3c4cc(Br)ccc4OC[C@@H]3[C@H](c3ccccc3)[C@]1(C)C(=O)N2,"inconclusive: 3.16 µM [activator, full curve, poor fit]",
FC(F)Oc1ccc(/C=N/NC(=S)Nc2cc(C(F)(F)F)ccc2Cl)cc1,inactive,
Cn1cc(C=O)c2cc(S(=O)(=O)N3CCOCC3)ccc21,"inconclusive: 5.62 µM [activator, partial curve, poor fit]",
O=[N+]([O-])c1ccc(N2CCN(c3ccc(Cl)nn3)CC2)c(Cl)c1,"inconclusive: 11.2 µM [activator, single point]",
COc1ccc(-c2cc(-c3ccccc3)nc3c2COc2ccc(F)cc2-3)cc1,inactive,
CCOC(=O)C1CCN(C2=NC(=O)/C(=C/c3ccc(Cl)cc3)S2)CC1,inactive,
CCc1ccc2[nH]c(=O)c(CN(Cc3ccc4c(c3)OCO4)Cc3nnnn3C3CCCC3)cc2c1,"inconclusive: 44.7 µM [activator, single point]",
CN(C)[C@H]1CCN(c2ccc3c(c2)O[C@@H]2CCN(C2)S3(=O)=O)C1,inactive,

SMILES,Potency,growth rescue (activation)
Cc1ccc(N=C2NC(=O)/C(=C/c3cccn3C)S2)cc1,inactive,
COc1ccc2c(c1)Cc1sc(NC(C)=O)nc1-2,,inconclusive: 58.4% [activator]
COc1ccccc1C(=O)NNC(=O)c1cccc(C)c1,inactive,
CCCCN(C(=O)CSc1nnc(-c2ccccc2OC)n1C)c1c(N)n(Cc2ccccc2)c(=O)[nH]c1=O,"inconclusive: 50.1 µM [activator, single point]",
C[C@H](CO)N1C[C@H](C)[C@@H](CN(C)Cc2ccc(-c3ccccc3)cc2)Oc2c(NS(=O)(=O)c3cccs3)cccc2C1=O,"inconclusive: 31.6 µM [activator, single point]",
CCC(C)(C)c1ccc(Oc2ccc(NC(=O)COC(=O)C3=COCCO3)cc2)cc1,"inconclusive: 50.1 µM [activator, single point]",
CCOc1ccccc1C(=O)OCC(=O)Nc1cc(S(=O)(=O)N2CCOCC2)ccc1C,"inconclusive: 25.1 µM [activator, partial curve, poor fit]",
Cc1ccc(C2C(C(=O)c3ccco3)=C(O)C(=O)N2c2nnc(C)s2)cc1 (stereo not drawn),"inconclusive: 17.8 µM [activator, partial curve, poor fit]",
Cc1ccc(OCCC(=O)OCC(=O)NCCNC(=O)COC(=O)CCOc2ccc(C)cc2)cc1,"inconclusive: 15.8 µM [activator, partial curve, poor fit]",
CCc1nn(CC(=O)N2CCCCC2)c(=O)c2cc3sc(C)cc3n12,inactive,
COc1cc(OC)c(C#N)c(S(=O)(=O)Cc2ccccc2)c1,inactive,
COc1ccc(S(=O)(=O)N2CCN(c3ccc4nnc(-c5ccc(F)cc5)n4n3)CC2)cc1,"inconclusive: 50.1 µM [activator, single point]",
CCOC(=O)c1cccc(NC(=O)C2Cc3ccccc3N2C(=O)c2ccccc2)c1 (stereo not drawn),inactive,
CC1CCN(S(=O)(=O)c2ccc3c(ccn3CCC(=O)NCc3ccccc3F)c2)CC1,"inconclusive: 28.2 µM [activator, single point]",
C#CCN(C[C@@H]1[C@@H](OC(=O)NCc2ccc(OC)c(OC)c2)[C@@H](OC(=O)NCc2ccc(OC)c(OC)c2)CN(C(=O)OC(C)C)N1C(=O)OC(C)C)S(=O)(=O)c1ccc(C)cc1,"inconclusive: 17.8 µM [activator, partial curve]",
Cc1nc(C(=O)Nc2cc(F)cc(Cl)c2)sc1C1(C)CC(c2ccccc2)=NO1 (stereo not drawn),"inconclusive: 50.1 µM [activator, single point]",
Cc1ccc(C)c(N2CCN(C(=O)NCc3noc4ccc(C)cc34)CC2)c1,inactive,
CCSc1ccccc1C(=O)Nc1ccc(-c2nc3ccccc3s2)c(O)c1,inactive,
N#CCCN(C(=O)CSc1nc2ccccc2c(=O)[nH]1)c1ccc(F)cc1,inactive,
Cc1ccc(S(=O)(=O)Cc2ccc(C(=O)N3CCN(c4cccc(Cl)c4)CC3)o2)cc1,"inconclusive: 28.2 µM [activator, single point]",
Cc1ccc(NC(=O)c2cc(S(=O)(=O)N3CCc4ccccc43)cn2C)c(Cl)c1,"inconclusive: 44.7 µM [activator, single point]",

SMILES,Potency,growth rescue (activation)
CCc1nc2cccnc2n1-c1ccc(CC(=O)Nc2cccc(C)c2C)cc1,inactive,
COc1ccc(N2C(=O)[C@@H]3[C@H](C2=O)[C@H]2C=CC=NN2[C@@H]3C(=O)Nc2ccc(Cl)cc2)cc1,"inconclusive: 14.1 µM [activator, partial curve, poor fit]",
Cc1ccc(C(C(=O)Nc2ccc(C(C)C)cc2)N(C)C(=O)c2ccc(=O)[nH]c2)cc1 (stereo not drawn),"inconclusive: 50.1 µM [activator, single point]",
CNC(=O)/C(C#N)=C/c1c(N(Cc2ccccc2)Cc2ccccc2)nc2c(C)cccn2c1=O,"inconclusive: 20 µM [activator, single point]",
N#CCCCc1cn(-c2cccc(-c3noc4c3C(=O)N(CC(=O)N3CCOCC3)CC4)c2)nn1,inactive,
C[C@H](CO)N1C[C@H](C)[C@@H](CN(C)C(=O)Nc2ccc(C(F)(F)F)cc2)Oc2c(NS(=O)(=O)c3cccs3)cccc2C1=O,"inconclusive: 28.2 µM [activator, single point]",
CN(C)C(=O)COC(=O)c1ccccc1Nc1ccc(SC(F)F)cc1,"inconclusive: 50.1 µM [activator, single point]",
O=C(c1cc(-c2ccco2)on1)N1CCCc2ccccc21,active: 35.5 µM,
COc1ccc(C)cc1N(C(=O)c1snc(C(N)=O)c1N)C(C(=O)NC1CCCC1)c1ccc(F)cc1 (stereo not drawn),"inconclusive: 50.1 µM [activator, single point]",
Cc1ccn2c(=O)c(C(=O)NCCN3CCOCC3)c(O)nc2c1,inactive,
Cc1cc(=O)[nH]c(SCC(=O)Nc2cccc3ccccc23)c1C#N,"inconclusive: 25.1 µM [activator, partial curve, poor fit]",
COC(=O)C1(C(=O)OC)C[C@H](/C=C/c2ccccc2)N(Cc2ccccc2OC)[C@@H]1c1ccc(F)cc1,inactive,
COC(=O)[C@]12C[C@H](CC(=O)N3CCN(C(=O)C4CC4)CC3)C(=O)N(CCC3=CCCCC3)C1=C[C@H](C1CCCC1)O[C@@H]2C,"inconclusive: 28.2 µM [activator, single point]",
CC(C)CC(=O)Nc1sc2c(c1C(=O)O)CCCCC2,inactive,
CN(C(=O)Cn1cc(S(=O)(=O)Cc2ccccc2Cl)c2ccccc21)c1ccccc1,"inconclusive: 20 µM [activator, partial curve]",
COC(=O)[C@@]1(Cc2ccc(F)cc2)[C@H]2c3cc(C(=O)N(C)C)n(Cc4ccc(C)c(F)c4F)c3C[C@H]2CN1C(=O)c1ccccc1,"inconclusive: 12.6 µM [activator, partial curve]",
Cc1ccc(CN2CCCCC(NC(=O)c3ccc(Br)cc3)C2=O)cc1 (stereo not drawn),inactive,
O=C(Nc1cc(C(F)(F)F)ccc1Cl)c1cc(-c2ccc3c(c2)OCCO3)on1,inactive,
CCOc1ccc(CCNC(=O)COC(=O)c2cccc(S(=O)(=O)N3CCCCC3)c2)cc1OCC,"inconclusive: 15.8 µM [activator, partial curve, poor fit]",
CCCCCCNC(=O)C1CSCCS(=O)(=O)N1Cc1ccc(F)cc1 (stereo not drawn),inactive,
CCn1cc(C(=O)NCc2ccccc2Cl)c(=O)c2cc(S(=O)(=O)N3CCc4ccccc4C3)ccc21,"inconclusive: 14.1 µM [activator, partial curve, poor fit]",

# Reference: PubChem BioAssay AID1347120 (National Center for Advancing Translational Sciences (NCATS), 2019)
